Test [1] concerns the target T1, GST-SAS-6-mCherry (C. elegans) (UniProt O62479).
T1 sequence: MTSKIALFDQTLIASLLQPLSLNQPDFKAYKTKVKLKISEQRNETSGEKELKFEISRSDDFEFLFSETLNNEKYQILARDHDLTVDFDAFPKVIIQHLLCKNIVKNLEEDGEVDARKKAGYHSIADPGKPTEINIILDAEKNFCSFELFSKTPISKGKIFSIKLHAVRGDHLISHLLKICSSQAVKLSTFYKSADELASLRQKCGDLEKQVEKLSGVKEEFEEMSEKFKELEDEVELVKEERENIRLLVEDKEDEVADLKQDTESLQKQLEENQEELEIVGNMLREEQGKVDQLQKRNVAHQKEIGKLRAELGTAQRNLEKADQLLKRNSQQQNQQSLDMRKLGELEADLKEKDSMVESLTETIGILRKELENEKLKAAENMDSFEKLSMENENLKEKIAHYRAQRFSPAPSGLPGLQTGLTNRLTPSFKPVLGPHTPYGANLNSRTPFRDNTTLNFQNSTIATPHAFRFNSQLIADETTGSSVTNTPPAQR
In words: pull-down; GST fusion proteins immobilised on glutathione Sepharose 4B; precleared HEK293T lysate in P150 buffer, 4 °C, 4 h; immunoblot and CBB staining (Fig. 4C, 5G); only the target purified. On the technique in general: In western blotting, separated proteins are transferred to a membrane and probed.

Sequences of proteins named here, by UniProt entry; tags and fusion partners are left off.
UniProt P34556: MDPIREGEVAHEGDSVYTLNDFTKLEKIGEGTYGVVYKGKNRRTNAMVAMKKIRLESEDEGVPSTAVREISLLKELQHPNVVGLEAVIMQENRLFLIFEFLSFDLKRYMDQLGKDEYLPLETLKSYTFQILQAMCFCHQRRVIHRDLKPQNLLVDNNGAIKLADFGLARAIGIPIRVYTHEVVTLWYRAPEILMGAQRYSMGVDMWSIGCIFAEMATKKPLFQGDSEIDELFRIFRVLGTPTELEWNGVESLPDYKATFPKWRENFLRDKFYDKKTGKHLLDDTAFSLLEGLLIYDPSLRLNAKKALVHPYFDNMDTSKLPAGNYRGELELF

The target in a further test is T2, SAS-6-GFP (C. elegans) (UniProt O62479).
T2 sequence: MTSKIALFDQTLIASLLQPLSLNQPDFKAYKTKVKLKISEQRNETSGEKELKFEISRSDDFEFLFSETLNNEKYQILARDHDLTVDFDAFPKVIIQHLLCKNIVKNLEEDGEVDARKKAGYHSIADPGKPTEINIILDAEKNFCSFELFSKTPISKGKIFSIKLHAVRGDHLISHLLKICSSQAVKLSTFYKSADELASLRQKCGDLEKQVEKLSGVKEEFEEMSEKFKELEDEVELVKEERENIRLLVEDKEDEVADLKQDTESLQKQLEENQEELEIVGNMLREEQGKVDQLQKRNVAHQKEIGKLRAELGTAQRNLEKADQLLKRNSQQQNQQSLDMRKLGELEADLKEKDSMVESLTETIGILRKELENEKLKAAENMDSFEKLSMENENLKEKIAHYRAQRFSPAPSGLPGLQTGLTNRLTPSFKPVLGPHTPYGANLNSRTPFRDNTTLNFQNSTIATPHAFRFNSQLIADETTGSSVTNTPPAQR
The experiment in a line: co-IP; α-GFP IP from HEK293T cells co-expressing SAS-6-GFP and Myc-CDK-1; WB (Fig. 4D).

The target of test [2] is T3, GST-SAS-6 full-length (FL) (C. elegans, UniProt O62479 1-492).
T3 construct: SAS-6, C. elegans, full length (1-492); pGEX6P1-GST vector; also called full-length SAS-6 coupled to beads; source: E. coli BL21 (DE3), purified (Glutathione Sepharose 4B); not shown: GST, N-terminal, kept
T3 sequence (looked up): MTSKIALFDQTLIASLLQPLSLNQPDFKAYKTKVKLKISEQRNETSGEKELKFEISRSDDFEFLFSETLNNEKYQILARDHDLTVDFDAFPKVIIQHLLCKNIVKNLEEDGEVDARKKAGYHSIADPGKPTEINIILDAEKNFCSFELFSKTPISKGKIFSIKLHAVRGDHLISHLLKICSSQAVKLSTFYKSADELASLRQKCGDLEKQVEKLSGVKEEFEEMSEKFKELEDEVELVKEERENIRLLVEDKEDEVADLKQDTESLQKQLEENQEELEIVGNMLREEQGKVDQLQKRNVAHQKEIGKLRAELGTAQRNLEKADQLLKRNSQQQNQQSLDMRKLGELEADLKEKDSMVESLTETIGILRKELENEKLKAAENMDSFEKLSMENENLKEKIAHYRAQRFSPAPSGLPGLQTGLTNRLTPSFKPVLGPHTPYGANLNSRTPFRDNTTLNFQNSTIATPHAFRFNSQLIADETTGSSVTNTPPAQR
The experiment in a line: bead recruitment assay; bead-coupled FL or truncated SAS-6, with or without pre-phosphorylation; recruitment of HEK293T cell-expressed SAS-4-GFP seen by fluorescence (Fig. 5I); only the target purified.

In test [3] the target is T4, GST-SAS-6-M, pre-phosphorylated (C. elegans) (UniProt O62479).
T4 sequence (chain, pre-phosphorylated; sites on this fragment not stated): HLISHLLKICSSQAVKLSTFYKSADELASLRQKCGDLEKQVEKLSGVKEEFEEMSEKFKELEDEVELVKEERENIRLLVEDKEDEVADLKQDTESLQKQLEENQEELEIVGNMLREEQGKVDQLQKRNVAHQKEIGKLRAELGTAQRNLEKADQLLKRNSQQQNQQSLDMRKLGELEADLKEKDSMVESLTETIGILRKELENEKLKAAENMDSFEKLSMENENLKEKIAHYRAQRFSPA
Described as above.

Test [4] addresses T5, GST-SAS-6(∆N) (C. elegans, UniProt O62479 171-492).
T5 construct: SAS-6, C. elegans, N-terminal head domain deleted (∆1–170), so residues 171-492; also called GST-SAS-6-ΔN; source: E. coli BL21 (DE3), purified (Glutathione Sepharose 4B); not shown: GST, N-terminal, kept
T5 sequence (looked up): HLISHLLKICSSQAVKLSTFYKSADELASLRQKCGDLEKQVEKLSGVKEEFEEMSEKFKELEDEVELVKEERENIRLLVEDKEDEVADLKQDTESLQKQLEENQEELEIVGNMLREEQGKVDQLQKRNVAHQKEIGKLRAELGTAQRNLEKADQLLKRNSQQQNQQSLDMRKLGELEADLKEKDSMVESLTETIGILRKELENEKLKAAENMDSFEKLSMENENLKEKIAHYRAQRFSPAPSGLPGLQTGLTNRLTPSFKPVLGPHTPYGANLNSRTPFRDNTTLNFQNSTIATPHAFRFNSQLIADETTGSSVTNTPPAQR
The description is as above.

Another test deals with T6, GST-SAS-6-M (C. elegans) (UniProt O62479).
T6 sequence: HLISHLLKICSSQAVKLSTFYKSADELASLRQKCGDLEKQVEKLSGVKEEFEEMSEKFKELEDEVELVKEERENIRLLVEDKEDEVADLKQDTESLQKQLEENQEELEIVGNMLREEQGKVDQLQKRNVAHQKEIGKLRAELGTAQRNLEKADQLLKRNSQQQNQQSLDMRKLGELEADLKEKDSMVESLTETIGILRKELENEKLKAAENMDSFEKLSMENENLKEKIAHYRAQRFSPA
The description is as above.

The target of test [5] is T7, GST-SAS-6(∆M) (C. elegans) (UniProt O62479).
T7 sequence: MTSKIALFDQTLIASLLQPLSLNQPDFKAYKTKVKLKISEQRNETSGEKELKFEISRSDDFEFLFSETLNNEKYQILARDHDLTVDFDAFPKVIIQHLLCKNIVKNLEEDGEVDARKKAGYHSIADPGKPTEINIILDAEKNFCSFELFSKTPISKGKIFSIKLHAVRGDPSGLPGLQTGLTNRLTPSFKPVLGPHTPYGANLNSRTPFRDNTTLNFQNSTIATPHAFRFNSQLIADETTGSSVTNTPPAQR
The test is described as above.

Test [6] deals with T3, GST-SAS-6 full-length (FL). In words: pull-down; GST fusion proteins immobilised on glutathione Sepharose 4B; precleared HEK293T lysate in P150 buffer, 4 °C, 4 h; immunoblot and CBB staining (Fig. 4C, 5G); only the target purified.
In test [7] the target is T5, GST-SAS-6(∆N). The description is as above.
The target of test [8] is T7, GST-SAS-6(∆M) (C. elegans). The description is as above.
Another test concerns the target T8, SAS-4-GFP (C. elegans) (UniProt P34402).
T8 sequence: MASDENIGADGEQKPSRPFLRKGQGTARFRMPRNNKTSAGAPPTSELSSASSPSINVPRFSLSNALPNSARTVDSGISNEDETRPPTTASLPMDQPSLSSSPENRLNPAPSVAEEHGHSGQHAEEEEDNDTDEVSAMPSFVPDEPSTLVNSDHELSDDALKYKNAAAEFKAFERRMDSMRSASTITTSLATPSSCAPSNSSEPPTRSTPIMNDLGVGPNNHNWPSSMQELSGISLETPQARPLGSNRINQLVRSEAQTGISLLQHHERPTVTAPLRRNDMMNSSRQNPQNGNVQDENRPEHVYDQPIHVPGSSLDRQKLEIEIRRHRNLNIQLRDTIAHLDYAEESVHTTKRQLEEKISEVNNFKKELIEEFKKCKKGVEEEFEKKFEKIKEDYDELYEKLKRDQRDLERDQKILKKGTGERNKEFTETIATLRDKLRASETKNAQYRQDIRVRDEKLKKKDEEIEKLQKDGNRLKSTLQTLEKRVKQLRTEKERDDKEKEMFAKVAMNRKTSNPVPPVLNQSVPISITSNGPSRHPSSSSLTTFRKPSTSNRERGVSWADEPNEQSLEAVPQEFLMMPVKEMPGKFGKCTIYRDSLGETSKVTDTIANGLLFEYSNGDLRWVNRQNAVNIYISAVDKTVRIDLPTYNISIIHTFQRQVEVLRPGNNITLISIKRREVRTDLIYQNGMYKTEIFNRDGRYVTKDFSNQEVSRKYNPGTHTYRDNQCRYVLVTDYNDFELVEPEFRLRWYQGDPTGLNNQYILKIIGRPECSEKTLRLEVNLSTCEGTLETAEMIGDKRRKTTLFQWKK
The experiment in a line: pull-down; GFP pulldown: SAS-4-GFP immunoprecipitated from HEK293T cells, incubated with purified SAS-6-C-mCherry-His with or without pre-phosphorylation by CDK1; WB (Fig. 5H); only the binder purified.

Three molecules from PMC12238530, “Dynamic SAS-6 phosphorylation aids centrosome duplication and elimination in C. elegans oogenesis” (EMBO Reports, 2025) can be followed below.

These are yes or no findings as the source states them, for the method shown. For some assays here: In cells and extracts the contact can be indirect. Some entries that bind do so weakly or less than the wild type. Sequences can lack the tags named with a protein.

For “Myc-CDK-1 (from UniProt P34556 1-332) (enzyme)”, the binding entry (in [1]; with SAS-6-GFP (C. elegans)) was “binds” each time.

B1: SAS-4-GFP (protein, UniProt P34402 1-808)
chain: MASDENIGADGEQKPSRPFLRKGQGTARFRMPRNNKTSAGAPPTSELSSASSPSINVPRFSLSNALPNSARTVDSGISNEDETRPPTTASLPMDQPSLSSSPENRLNPAPSVAEEHGHSGQHAEEEEDNDTDEVSAMPSFVPDEPSTLVNSDHELSDDALKYKNAAAEFKAFERRMDSMRSASTITTSLATPSSCAPSNSSEPPTRSTPIMNDLGVGPNNHNWPSSMQELSGISLETPQARPLGSNRINQLVRSEAQTGISLLQHHERPTVTAPLRRNDMMNSSRQNPQNGNVQDENRPEHVYDQPIHVPGSSLDRQKLEIEIRRHRNLNIQLRDTIAHLDYAEESVHTTKRQLEEKISEVNNFKKELIEEFKKCKKGVEEEFEKKFEKIKEDYDELYEKLKRDQRDLERDQKILKKGTGERNKEFTETIATLRDKLRASETKNAQYRQDIRVRDEKLKKKDEEIEKLQKDGNRLKSTLQTLEKRVKQLRTEKERDDKEKEMFAKVAMNRKTSNPVPPVLNQSVPISITSNGPSRHPSSSSLTTFRKPSTSNRERGVSWADEPNEQSLEAVPQEFLMMPVKEMPGKFGKCTIYRDSLGETSKVTDTIANGLLFEYSNGDLRWVNRQNAVNIYISAVDKTVRIDLPTYNISIIHTFQRQVEVLRPGNNITLISIKRREVRTDLIYQNGMYKTEIFNRDGRYVTKDFSNQEVSRKYNPGTHTYRDNQCRYVLVTDYNDFELVEPEFRLRWYQGDPTGLNNQYILKIIGRPECSEKTLRLEVNLSTCEGTLETAEMIGDKRRKTTLFQWKK
B1: the binding result in test [2] is reported as “binds”; in test [3], “binds weakly”; in the test with GST-SAS-6(∆N) [4], “binds”; with GST-SAS-6-M (C. elegans), “binds weakly”; in [5], “no binding”; in test [6], “binds”. The binding result in the test with GST-SAS-6(∆N) [7] is “binds”; in [8], “no binding”.

B2: SAS-6-C-mCherry-His (domain or fragment, C. elegans, UniProt O62479 401-492, looked up)
chain: HYRAQRFSPAPSGLPGLQTGLTNRLTPSFKPVLGPHTPYGANLNSRTPFRDNTTLNFQNSTIATPHAFRFNSQLIADETTGSSVTNTPPAQR
notes: SAS-6, C. elegans, C-terminal unstructured region, residues 401-492; Cloned in pET.28a-mCherry; the primer's vector part encodes LFQGP before the NdeI site, so a further N-terminal tag may be there; also called mCherry-His tagged SAS-6 C-terminus; SAS-6 C-terminus; source: E. coli BL21 (DE3), purified (Ni-NTA); not shown: mCherry, C-terminal, kept; His, C-terminal, kept
As for B2, in the test with SAS-4-GFP (C. elegans), the binding entry was “binds”.
